Results: PMC4336329 (PLoS ONE, 2015)
Out of some 310,000 compounds screened, about 2,200 (0.71%) showed an effect of 50% or more. Effects have a minus sign here. Some of the results follow.

The compounds below were run against human ether-à-go-go-related gene (hERG) potassium channel (human, UniProt Q12809) (assay: primary screen, population patch clamp on CHO cells stably expressing hERG).
Chain of human ether-à-go-go-related gene (hERG) potassium channel (Q12809 whole entry, looked up): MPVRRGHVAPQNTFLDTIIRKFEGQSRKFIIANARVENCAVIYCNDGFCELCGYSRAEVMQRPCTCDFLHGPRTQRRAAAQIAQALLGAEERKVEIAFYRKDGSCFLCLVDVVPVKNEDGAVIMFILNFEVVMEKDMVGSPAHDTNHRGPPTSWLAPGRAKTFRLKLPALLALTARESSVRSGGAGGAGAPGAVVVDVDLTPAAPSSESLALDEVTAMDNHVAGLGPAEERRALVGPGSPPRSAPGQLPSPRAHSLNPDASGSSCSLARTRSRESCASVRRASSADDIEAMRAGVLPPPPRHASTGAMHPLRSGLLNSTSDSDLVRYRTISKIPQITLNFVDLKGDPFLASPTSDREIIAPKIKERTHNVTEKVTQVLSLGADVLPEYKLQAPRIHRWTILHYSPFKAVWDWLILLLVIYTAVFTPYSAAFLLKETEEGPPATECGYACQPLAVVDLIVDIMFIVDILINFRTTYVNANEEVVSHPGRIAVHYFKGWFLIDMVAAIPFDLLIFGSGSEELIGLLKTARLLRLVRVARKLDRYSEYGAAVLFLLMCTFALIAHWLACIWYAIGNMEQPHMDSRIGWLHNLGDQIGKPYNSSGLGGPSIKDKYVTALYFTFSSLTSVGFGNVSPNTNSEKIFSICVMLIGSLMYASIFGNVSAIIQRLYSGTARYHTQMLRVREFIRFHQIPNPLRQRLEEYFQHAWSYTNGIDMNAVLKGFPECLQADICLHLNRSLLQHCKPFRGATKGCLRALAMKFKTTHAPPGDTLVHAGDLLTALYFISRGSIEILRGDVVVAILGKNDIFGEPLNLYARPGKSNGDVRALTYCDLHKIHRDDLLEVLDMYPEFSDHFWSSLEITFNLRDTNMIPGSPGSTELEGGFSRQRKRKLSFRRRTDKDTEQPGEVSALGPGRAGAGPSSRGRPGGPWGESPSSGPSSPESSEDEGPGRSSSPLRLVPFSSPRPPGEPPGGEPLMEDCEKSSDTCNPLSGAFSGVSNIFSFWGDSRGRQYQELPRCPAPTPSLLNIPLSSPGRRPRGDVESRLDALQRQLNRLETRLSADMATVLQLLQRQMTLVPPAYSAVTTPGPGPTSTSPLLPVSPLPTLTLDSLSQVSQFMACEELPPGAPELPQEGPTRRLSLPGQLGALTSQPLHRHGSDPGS

| Compound | hERG current change (%, negative = inhibition) at 1uM [%] |
| --- | --- |
| O=C(Nc1nc(-c2cccs2)cs1)C1=COCCO1 | 1 |
| O=C(OCC(=O)N1CCN(c2ccccc2)CC1)c1nc(Cl)ccc1Cl | 2.65 |
| COc1ccc(Nc2nc(N)nc(CSC(=S)N3CCCCC3C)n2)cc1 (centres unmarked) | 9.64 |
| Cc1cc(C)n(-c2c(F)c(F)c(COC(=O)c3ccccc3)c(F)c2F)n1 | 10.2 |
| Cc1nonc1CN(C)C(=O)CC1C(=O)NCCN1Cc1ccc(F)c(F)c1 (centres unmarked) | 8.67 |
| Cc1ccc(SCc2cc(=O)n(C)[nH]2)cc1 | 18.2 |
| O=C(CSc1ccc(Br)cc1)NCC(c1ccco1)N1CCCCC1 (centres unmarked) | 9.34 |
| O=C(O)C(c1ccccc1)C1(O)CCCCC1 (centres unmarked) | 18.1 |
| CC(=O)c1c(C)[nH]c(C(=O)Nc2cccc(S(=O)(=O)N3CCOCC3)c2)c1C | 7.8 |
| Cc1cc(C(F)(F)F)c(C#N)c(SCC(=O)Nc2nc3cc(Br)ccc3s2)n1 | -39.9 |
| COc1ccc(-c2cc(C(F)(F)F)n3ncc(C(=O)N4CCc5ccccc5C4)c3n2)cc1 | 11.6 |
| Cc1ccc(-c2nnc(N3CCOCC3)c3ccccc23)cc1S(=O)(=O)NCC1CCCO1 (centres unmarked) | 0.72 |
| Cc1oc(C)c(C(=O)O)c1COc1ccc(C(=O)O)cc1 | 9.47 |
| CCOC(=O)c1c(NC(=O)CSc2nnc(C)o2)sc(C)c1C | 4.1 |
| COc1cc(C)ccc1OCCOCCOc1ccc([N+](=O)[O-])cc1 | -9 |
| CCNc1nc(-c2ccc(OC(F)F)cc2)c(C)s1 | 16.7 |
| COc1ccc(C(=O)CSc2nnc(CNc3ccc(F)cc3)o2)cc1 | 13 |
| Cc1cc(NC(=O)CSc2nnnn2-c2ccc(C(C)C)cc2)no1 | 7.23 |
| O=C(O)C1CN2CCC1CC2 (centres unmarked) | -4.48 |
| C/C(=N\Nc1nc(N)cc(Cl)n1)c1ccc(Cl)c(Cl)c1 | 0.15 |
| COc1ccc(N(CC(=O)N2CCN(c3ccccc3)CC2)S(=O)(=O)c2c(C)noc2C)cc1 | -0.248 |
| COc1ccc(S(=O)(=O)N2CCC(C(=O)NCCc3c[nH]c4ccccc34)CC2)cc1 | 9.47 |
| CC(C)COC(=O)CNc1n[nH]c(=S)[nH]c1=O | 8.28 |

| Compound | hERG current change (%, negative = inhibition) at 1uM [%] |
| --- | --- |
| COc1ccc(N/N=C2/CCCCC2=O)cc1 | 14.6 |
| O=C(O)CC(c1cccc(O)c1)N1Cc2ccccc2C1=O (centres unmarked) | 12 |
| O=C(NC1CCN(Cc2ccccc2)CC1)C1CCCN(c2nnc(-n3cccc3)s2)C1 (centres unmarked) | -65.2 |
| O=C(Nc1cccc(C(=O)N2CCCCCC2)c1)c1ccco1 | 2.11 |
| COc1ccc(NC(=O)CN2C(=O)NC3(CCCC3)C2=O)cc1Cl | 16.3 |
| CC(C)(C)NC(=O)C(OC(=O)Cn1nnc(-c2ccc(F)cc2)n1)c1ccncc1 (centres unmarked) | 25.2 |
| Cc1ccc2occ(/C=C/C(=O)O)c(=O)c2c1 | 9.03 |
| Cc1ccc(SCc2ccc(C(=O)NCc3cccnc3)cc2)cc1 | 15.1 |
| Cc1ccc(-c2cc(C(=O)Nc3ccc(S(=O)(=O)Nc4ncccn4)cc3)c3ccccc3n2)cc1 | -1.57 |
| CCC(Oc1ccccc1OC)C(=O)Nc1ccc2c(c1)OCCO2 (centres unmarked) | 3.64 |
| CCn1c(-c2ccc(-c3ccccc3)cc2)c[nH]c1=S | 7.11 |
| CCn1c(/C=N/Nc2ccc(C(=O)O)cc2)nc2ccccc21 | 9.47 |
| Cc1ccc(-n2[nH]c(C)c(/C=N/NC(=O)c3ccc(O)cc3O)c2=O)cc1 | 21.4 |
| CCOC(=O)C1=C(C)Nc2nc(SCC(=O)OC)nn2C1c1cc(F)cc(F)c1 (centres unmarked) | -4.97 |
| CC(=O)c1cccc(NC(=O)c2ccc3c(c2)OCO3)c1 | 14.9 |
| O=C(COC(=O)c1n[nH]c2ccccc12)Nc1ccc([N+](=O)[O-])cc1 | 11.5 |
| CCc1ccccc1NC(=O)COC(=O)c1cccs1 | 13.3 |
| Cc1cccc(OCC(=O)N2CCN(C(=O)c3cccs3)CC2)c1 | 5.43 |
| O=C(O)c1ccccc1-c1ccc(C=C2C(=O)N(c3ccccc3)C(=S)N(c3ccccc3)C2=O)o1 | 11.6 |
| O=c1c2ccccc2oc2ncccc12 | -3.22 |
| COC(=O)CCCC1=CC2=C(c3ccccc3)C(=O)C(C)(OC(=O)C3CCCC3)C(=O)C2=CN1CCc1ccccn1 (centres unmarked) | 8.76 |
| CCCSc1nc(C)c(CC(=O)OCC)c(=O)[nH]1 | -3.2 |
| CS(=O)(=O)N1CCN(C2Cc3ccccc3C2)CC1.O=C(O)C(=O)O | 5.22 |

| Compound | hERG current change (%, negative = inhibition) at 1uM [%] |
| --- | --- |
| CCCn1c(N)cc(=O)n(C)c1=O | 14.3 |
| CN1CCN(c2nc3c(c(=O)[nH]c(=O)n3C)n2Cc2cccc3ccccc23)CC1 | 2.76 |
| O=C(CCCN1C(=O)/C(=C\c2cccs2)SC1=S)Nc1cccc(C(=O)O)c1 | 5.52 |
| Cc1nc(-c2ccccc2)sc1C(=O)CSc1ccc(Cl)cc1 | 6.07 |
| O=[N+]([O-])c1ccc(Oc2ccc(OCc3ccccc3)cc2)nc1 | 5.31 |
| CN(Cc1nc(CCc2ccccc2)no1)Cc1cccs1 | 2.37 |
| N#CCC1c2ccccc2CCN1C(=O)Nc1ccc(C(F)(F)F)cc1 (centres unmarked) | -4.23 |
| C/C(N)=C(\C#N)C(=O)NCCc1ccccn1 | 15.8 |
| O=C1NC(c2ccc(F)cc2)Oc2ccccc21 (centres unmarked) | 9.53 |
| Cc1ccccc1OCCCCN1CCCCC1 | 13.7 |
| CC1=CC=CC2=NC(=O)CC(C)(C(=O)O)N12 (centres unmarked) | 12.8 |
| Cc1ccc(CN2CCN(C3CCC3)CC2CCO)cc1 (centres unmarked) | 7.27 |
| COc1ccc2[nH]c(=O)c(CN(C(=O)c3cccnc3)c3ccc(C)cc3C)cc2c1 | 12.1 |
| CC(C)[C@H](CO)Nc1nc(Nc2ccc(Cl)c(C(=O)O)c2)c2ncn(C(C)C)c2n1 | 17.5 |
| CC(=O)c1ccc(NC(=S)Nc2cccc3ccccc23)cc1 | 2.49 |
| O=C1N=C(N2CCc3ccccc3C2)S/C1=C\c1cccc(O)c1 | 5.26 |
| COc1ccc(CNC(=O)C2CCN(S(=O)(=O)c3ccc(-c4nn[nH]n4)cc3)CC2)cc1 | -11.4 |
| O=C(O)C1CC1c1ccc(Br)cc1 (centres unmarked) | 4.08 |
| Oc1ccccc1-c1nc(N2CCN(Cc3ccccc3)CC2)c2ccccc2n1 | 10.2 |
| Cc1ccc(C)c(S(=O)(=O)N2CCCCC2CCNC(=O)C(=O)NCc2ccccc2)c1 (centres unmarked) | 12.4 |
| Cc1ccccc1N1CCN(C(=O)c2ccccc2NC(=O)C2CC=CCC2C(=O)O)CC1 (centres unmarked) | -3.93 |
| Cc1ccc(SCC2(O)CCN(C(=O)c3ccc(Cl)cc3)CC2)cc1 | -0.625 |
| Cc1ccnc(NC(=O)C2CCN(S(=O)(=O)c3ccc(Cl)c(C(F)(F)F)c3)CC2)c1 | -8.76 |

| Compound | hERG current change (%, negative = inhibition) at 1uM [%] |
| --- | --- |
| O=C(COc1ncnc2ccccc12)NCc1ccc2c(c1)OCO2 | 7.58 |
| CCOc1ccc(CO[C@@H]2O[C@H](CO)[C@@H](O)[C@H](O)[C@H]2NC(C)=O)cc1OC | 16 |
| O=C(Nc1ccccc1F)c1ccc(OCc2ccccc2)cc1 | 9.48 |
| CC(C)(C)NC(=O)CN(C(=O)C(=O)Nc1ccc2c(c1)OCCO2)C1CC1 | 4.93 |
| COc1ccc(C(=O)Nc2ccccc2C(=O)N2CCCCCC2)cc1OC | -1.24 |
| CCOc1ccc(N2C(=O)CC(/C=C3/N(C)c4ccccc4C3(C)C)C2=O)cc1 (centres unmarked) | 17.7 |
| COc1ccc(CC(=O)Nc2c3c(nn2-c2cccc(Cl)c2)CS(=O)(=O)C3)cc1 | -37.5 |
| COc1ccc(N2CCN(C(=O)c3cc(=O)c4cc(C)c(C)cc4o3)CC2)cc1 | 16.1 |
| Cc1ccc(NC(=O)c2cccc3c2C(=O)N(C2CCCCC2)C3)cc1 | 9.85 |
| CCOC(=O)c1c(-c2ccc(C)o2)csc1NC(=O)COC(=O)c1cccs1 | -22 |
| COc1ccc(OCC(=O)Nc2cc(-c3nn4c(C)nnc4s3)ccc2C)cc1 | 3.66 |
| C=CCNc1oc(-c2cccc3ccccc23)nc1C#N | -3.67 |
| CCN1CCCC1CNC(=O)C(NC(=O)C1CCC(C)CC1)C(C)C (centres unmarked) | 11.6 |
| COc1cc(S(=O)(=O)N2CCN(C(=O)c3ccco3)CC2)c(OC)cc1C | 13.9 |
| COc1cccc(NC(=O)CC2C(=O)NC3CCCCC3N2C(=O)c2ccccc2)c1 (centres unmarked) | 16.2 |
| Cc1ccc(NC(=O)C(=O)NCCN2CCN(C(=O)C(c3ccccc3)c3ccccc3)CC2)cc1 | 2.47 |
| Cc1nnc(SCc2cccc([N+](=O)[O-])c2)s1 | 12.9 |
| COc1ccc(OCCn2ccnc2)cc1 | 10.3 |
| C=CCn1c(=S)sc2c(=O)[nH]cnc21 | 9.16 |
| Nc1nc(COC(=O)C2CC(=O)N(Cc3ccccc3Cl)C2)nc(Nc2ccccc2)n1 (centres unmarked) | -12.3 |
